# In the supplement of paper PMC8728848:
# The other results are listed elsewhere or left out.
# B1: PX14375C-bth-509-28-509 (Bacteroides thetaiotaomicron) (protein)
# chain: RSPQGQFTEDDNPNALVNGKIYNVYTMMRSFDITAGTPAIAIHYLRSEDSEKGSIPSDGSDVAEMYDDFLYTPTNGLLGSYWGKNYAIIYQCNDILDAIAEKETAGQTETEDIINKGEASFFRAYCYFNLVRAFGEVPLVTYKINDASEANIPKTTADKIYEQIDTDLKTAEESLPETWSTEYTGRLTWGAARSLHARTYMMRSDWDNMYKASTDVINKGLYNLKTPYNEIFTDDGENSGGSIFELQCTATAALPQSDVIGSQFCEVQGVRGAGQWDLGWGWHMATQLMADAYETGDPRKNATLLYFRKTDDEPITPENTNEPYGESPISPAMGAYFNKKAYTDPALRKEYTNKGFWVNIRLIRYSDVVLMAAEAANEKNIPGEAVDYLEMVRARARGTNTNILPKITTNDQGELREAIRHERRVELGLEPDRFYDLVRWGIASEVLHAAGKVNYQDKNALLPLPQSEIDKSKGVLVQNPDY
# Experiments:
# Assay in all cases: glycan array binding signal (z-score within array); higher = stronger binding
# Details in all cases: glycan notation: IUPAC condensed, linker removed
# [1] = target: Gal(b1-4)GlcNAc(b1-3)Gal(b1-4)GlcNAc(b1-2)[Gal(b1-4)GlcNAc(b1-3)Gal(b1-4)GlcNAc(b1-6)]Man(a1-6)[Gal(b1-4)GlcNAc(b1-3)Gal(b1-4)GlcNAc(b1-2)Man(a1-3)]Man(b1-4)GlcNAc(b1-4)GlcNAc
# Outline: (§1)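 From the Consortium for Functional Glycomics database, 3228 arrays were curated, keeping only those whose protein sequence was available. Binding is given as a within-array Z-score averaged across arrays sharing a protein sequence and across linkers. Negative Z-scores can be read as non-binding.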
# [2] = target: Gal(b1-4)GlcNAc(b1-3)Gal(b1-4)GlcNAc(b1-2)[Gal(b1-4)GlcNAc(b1-3)Gal(b1-4)GlcNAc(b1-6)]Man(a1-6)[Gal(b1-4)GlcNAc(b1-3)Gal(b1-4)GlcNAc(b1-2)Man(a1-3)]Man(b1-4)GlcNAc(b1-4)[Fuc(a1-6)]GlcNAc
# Outline: as §1
# [3] = target: Gal(b1-4)GlcNAc(b1-3)Gal(b1-4)GlcNAc(b1-3)Gal(b1-4)GlcNAc
# Outline: as §1
# [4] = target: Gal(b1-4)GlcNAc(b1-3)Gal(b1-4)GlcNAc(b1-3)Gal(b1-4)GlcNAc(b1-2)Man(a1-3)[Gal(b1-4)GlcNAc(b1-3)Gal(b1-4)GlcNAc(b1-3)Gal(b1-4)GlcNAc(b1-2)Man(a1-6)]Man(b1-4)GlcNAc(b1-4)GlcNAc
# Outline: as §1
# [5] = target: Gal(b1-4)GlcNAc(b1-3)Gal(b1-4)GlcNAc(b1-3)Gal(b1-4)GlcNAc(b1-2)Man(a1-3)[Gal(b1-4)GlcNAc(b1-3)Gal(b1-4)GlcNAc(b1-3)Gal(b1-4)GlcNAc(b1-2)Man(a1-6)]Man(b1-4)GlcNAc(b1-4)[Fuc(a1-6)]GlcNAc
# Outline: as §1
# [6] = target: Gal(b1-4)GlcNAc(b1-3)Gal(b1-4)GlcNAc(b1-3)Gal(b1-4)GlcNAc(b1-2)[Gal(b1-4)GlcNAc(b1-3)Gal(b1-4)GlcNAc(b1-3)Gal(b1-4)GlcNAc(b1-6)]Man(a1-6)[Gal(b1-4)GlcNAc(b1-3)Gal(b1-4)GlcNAc(b1-3)Gal(b1-4)GlcNAc(b1-2)Man(a1-3)]Man(b1-4)GlcNAc(b1-4)[Fuc(a1-6)]GlcNAc
# Outline: as §1
# [7] = target: Gal(b1-4)GlcNAc(b1-3)Gal(b1-4)GlcNAc(b1-3)Gal(b1-4)GlcNAc(b1-3)Gal(b1-4)GlcNAc(b1-2)Man(a1-3)[Gal(b1-4)GlcNAc(b1-3)Gal(b1-4)GlcNAc(b1-3)Gal(b1-4)GlcNAc(b1-3)Gal(b1-4)GlcNAc(b1-2)Man(a1-6)]Man(b1-4)GlcNAc(b1-4)GlcNAc
# Outline: as §1
# [8] = target: Gal(b1-4)GlcNAc(b1-3)Gal(b1-4)GlcNAc(b1-3)Gal(b1-4)GlcNAc(b1-3)Gal(b1-4)GlcNAc(b1-2)Man(a1-3)[Gal(b1-4)GlcNAc(b1-3)Gal(b1-4)GlcNAc(b1-3)Gal(b1-4)GlcNAc(b1-3)Gal(b1-4)GlcNAc(b1-2)Man(a1-6)]Man(b1-4)GlcNAc(b1-4)[Fuc(a1-6)]GlcNAc
# Outline: as §1
# [9] = target: Gal(b1-4)GlcNAc(b1-3)Gal(b1-4)GlcNAc(b1-3)Gal(b1-4)GlcNAc(b1-3)Gal(b1-4)GlcNAc(b1-2)[Gal(b1-4)GlcNAc(b1-3)Gal(b1-4)GlcNAc(b1-3)Gal(b1-4)GlcNAc(b1-3)Gal(b1-4)GlcNAc(b1-6)]Man(a1-6)[Gal(b1-4)GlcNAc(b1-3)Gal(b1-4)GlcNAc(b1-3)Gal(b1-4)GlcNAc(b1-3)Gal(b1-4)GlcNAc(b1-2)Man(a1-3)]Man(b1-4)GlcNAc(b1-4)[Fuc(a1-6)]GlcNAc
# Outline: as §1
# [10] = target: Gal(b1-4)GlcNAc(b1-3)Gal(b1-4)GlcNAc(b1-3)Gal(b1-4)GlcNAc(b1-3)Gal(b1-4)GlcNAc(b1-3)Gal(b1-4)GlcNAc(b1-2)Man(a1-3)[Gal(b1-4)GlcNAc(b1-3)Gal(b1-4)GlcNAc(b1-3)Gal(b1-4)GlcNAc(b1-3)Gal(b1-4)GlcNAc(b1-3)Gal(b1-4)GlcNAc(b1-2)Man(a1-6)]Man(b1-4)GlcNAc(b1-4)GlcNAc
# Outline: as §1
# [11] = target: Gal(b1-4)GlcNAc(b1-3)Gal(b1-4)GlcNAc(b1-3)Gal(b1-4)GlcNAc(b1-3)Gal(b1-4)GlcNAc(b1-3)Gal(b1-4)GlcNAc(b1-2)Man(a1-3)[Gal(b1-4)GlcNAc(b1-3)Gal(b1-4)GlcNAc(b1-3)Gal(b1-4)GlcNAc(b1-3)Gal(b1-4)GlcNAc(b1-3)Gal(b1-4)GlcNAc(b1-2)Man(a1-6)]Man(b1-4)GlcNAc(b1-4)[Fuc(a1-6)]GlcNAc
# Outline: as §1
# [12] = target: Gal(b1-4)GlcNAc(b1-3)Gal(b1-4)GlcNAc(b1-3)Gal(b1-4)GlcNAc(b1-3)Gal(b1-4)GlcNAc(b1-3)Gal(b1-4)GlcNAc(b1-2)[Gal(b1-4)GlcNAc(b1-3)Gal(b1-4)GlcNAc(b1-3)Gal(b1-4)GlcNAc(b1-3)Gal(b1-4)GlcNAc(b1-3)Gal(b1-4)GlcNAc(b1-6)]Man(a1-6)[Gal(b1-4)GlcNAc(b1-3)Gal(b1-4)GlcNAc(b1-3)Gal(b1-4)GlcNAc(b1-3)Gal(b1-4)GlcNAc(b1-3)Gal(b1-4)GlcNAc(b1-2)Man(a1-3)]Man(b1-4)GlcNAc(b1-4)[Fuc(a1-6)]GlcNAc
# Outline: as §1
# [13] = target: Gal(b1-4)GlcNAc(b1-3)Gal(b1-4)GlcNAc(b1-3)Gal(b1-4)GlcNAc(b1-3)Gal(b1-4)GlcNAc(b1-3)Gal(b1-4)GlcNAc(b1-3)Gal(b1-4)GlcNAc(b1-2)Man(a1-3)[Gal(b1-4)GlcNAc(b1-3)Gal(b1-4)GlcNAc(b1-3)Gal(b1-4)GlcNAc(b1-3)Gal(b1-4)GlcNAc(b1-3)Gal(b1-4)GlcNAc(b1-3)Gal(b1-4)GlcNAc(b1-2)Man(a1-6)]Man(b1-4)GlcNAc(b1-4)GlcNAc
# Outline: as §1
# [14] = target: Gal(b1-4)GlcNAc(b1-3)Gal(b1-4)GlcNAc(b1-3)GalNAc
# Outline: as §1
# [15] = target: Gal(b1-4)GlcNAc(b1-3)Gal(b1-4)GlcNAc(b1-3)[Gal(b1-4)GlcNAc(b1-3)Gal(b1-4)GlcNAc(b1-6)]GalNAc
# Outline: as §1
# [16] = target: Gal(b1-4)GlcNAc(b1-3)Gal(b1-4)GlcNAc(b1-6)[Gal(b1-3)]GalNAc
# Outline: as §1
# [17] = target: Gal(b1-4)GlcNAc(b1-3)Gal(b1-4)[Fuc(a1-3)]GlcNAc(b1-3)Gal(b1-4)[Fuc(a1-3)]GlcNAc
# Outline: as §1
# [18] = target: Gal(b1-4)GlcNAc(b1-3)GalNAc
# Outline: as §1
# [19] = target: Gal(b1-4)GlcNAc(b1-3)[Fuc(a1-3)GlcNAc(b1-6)]Gal(b1-4)Glc
# Outline: as §1
# [20] = target: Gal(b1-4)GlcNAc(b1-3)[Gal(b1-4)GlcNAc(b1-6)]Gal(b1-4)GlcNAc
# Outline: as §1
# [21] = target: Gal(b1-4)GlcNAc(b1-3)[GlcNAc(b1-6)]Gal(b1-4)GlcNAc
# Outline: as §1
# [22] = target: Gal(b1-4)GlcNAc(b1-6)Gal(b1-4)GlcNAc
# Outline: as §1
# [23] = target: Gal(b1-4)GlcNAc(b1-6)GalNAc
# Outline: as §1
# [24] = target: Gal(b1-4)GlcNAc(b1-6)[Gal(b1-3)]GalNAc
# Outline: as §1
# [25] = target: Gal(b1-4)GlcNAc(b1-6)[Gal(b1-4)GlcNAc(b1-3)]GalNAc
# Outline: as §1
# Gal(b1-4)GlcNAc6P = target: Gal(b1-4)GlcNAc6P
# Outline: as §1
# Gal(b1-6)Gal = target: Gal(b1-6)Gal
# Outline: as §1
# Gal3S(b1-3)GalNAc = target: Gal3S(b1-3)GalNAc
# Outline: as §1
# Gal3S(b1-3)GlcNAc = target: Gal3S(b1-3)GlcNAc
# Outline: as §1
# [26] = target: Gal3S(b1-3)[Fuc(a1-4)]GlcNAc
# Outline: as §1
# Gal3S(b1-4)Glc = target: Gal3S(b1-4)Glc
# Outline: as §1
# Gal3S(b1-4)Glc6S = target: Gal3S(b1-4)Glc6S
# Outline: as §1
# Gal3S(b1-4)GlcNAc = target: Gal3S(b1-4)GlcNAc
# Outline: as §1
# [27] = target: Gal3S(b1-4)[Fuc(a1-3)]Glc6S
# Outline: as §1
# [28] = target: Gal3S(b1-4)[Fuc(a1-3)]GlcNAc
# Outline: as §1
# [29] = target: Gal3S(b1-4)[Fuc(a1-3)]GlcNAc6S
# Outline: as §1
# Gal3S4S(b1-4)GlcNAc = target: Gal3S4S(b1-4)GlcNAc
# Outline: as §1
binder,measurement,setting,value
B1,glycan array binding signal (z-score),[1],-0.127
same,glycan array binding signal (z-score),[2],12.3
same,glycan array binding signal (z-score),[3],-0.324
same,glycan array binding signal (z-score),[4],0.774
same,glycan array binding signal (z-score),[5],0.071
same,glycan array binding signal (z-score),[6],2.29
same,glycan array binding signal (z-score),[7],0.053
same,glycan array binding signal (z-score),[8],0.041
same,glycan array binding signal (z-score),[9],2.23
same,glycan array binding signal (z-score),[10],3.46
same,glycan array binding signal (z-score),[11],0.535
same,glycan array binding signal (z-score),[12],0.66
same,glycan array binding signal (z-score),[13],1.46
same,glycan array binding signal (z-score),[14],-0.224
same,glycan array binding signal (z-score),[15],0.467
same,glycan array binding signal (z-score),[16],0.36
same,glycan array binding signal (z-score),[17],-0.01
same,glycan array binding signal (z-score),[18],0.281
same,glycan array binding signal (z-score),[19],-0.233
same,glycan array binding signal (z-score),[20],-0.178
same,glycan array binding signal (z-score),[21],-0.337
same,glycan array binding signal (z-score),[22],-0.054
same,glycan array binding signal (z-score),[23],-0.255
same,glycan array binding signal (z-score),[24],-0.389
same,glycan array binding signal (z-score),[25],0.017
same,glycan array binding signal (z-score),Gal(b1-4)GlcNAc6P,0.035
same,glycan array binding signal (z-score),Gal(b1-6)Gal,-0.231
same,glycan array binding signal (z-score),Gal3S(b1-3)GalNAc,-0.553
same,glycan array binding signal (z-score),Gal3S(b1-3)GlcNAc,-0.183
same,glycan array binding signal (z-score),[26],-0.117
same,glycan array binding signal (z-score),Gal3S(b1-4)Glc,-0.207
same,glycan array binding signal (z-score),Gal3S(b1-4)Glc6S,-0.242
same,glycan array binding signal (z-score),Gal3S(b1-4)GlcNAc,-0.113
same,glycan array binding signal (z-score),[27],0.039
same,glycan array binding signal (z-score),[28],-0.345
same,glycan array binding signal (z-score),[29],-0.411
same,glycan array binding signal (z-score),Gal3S4S(b1-4)GlcNAc,-0.33
